# Data from publication PMC12040169 (PLOS Biology, 2025).
# The list shows a part of the results.
# Tested on: T1, C. trachomatis L2/434/Bu expressing GFP (CTL2-GFP)
# T1 construct: L2/434/Bu GFP intracellular growth in HeLa cells
# Parameters: species or system HeLa; C. trachomatis total inclusion area by high-content imaging, normalised to DMSO
# Conditions: total inclusion area; 28.5 h, 10 µM; inhibitor
# Summary of the method: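 Imaging read-out: GFP inclusions and Hoechst nuclei captured by high-content imaging after fixation. Inclusion area/number = chlamydial growth; nuclei count = host cell viability. MIC calculated per earlier method.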
row,SMILES,% of control remaining
1,Brc1cccc(/C=N/N2CCN(Cc3cccc4ccccc34)CC2)c1 [CBK263011],84.3626
2,CCC(CC)C(=O)N1CCCC1c1nn(C)cc1-c1cc(C)no1 (centres unmarked) [CBK283452],117.037
3,CC(C)(C)c1ccc(S(=O)(=O)N2CCCC[C@H]2COC(=O)CCC(=O)O)cc1 [CBK200063],97.0314
4,CN1CCN(c2nc3ccccn3c(=O)c2/C=C2\SC(=S)N(CCc3ccccc3)C2=O)CC1 [CBK263131],85.038
5,O=S(=O)(Nc1ccc2[nH]ccc2c1)c1cc(C(F)(F)F)cc(C(F)(F)F)c1 [CBK156330],87.3785
6,COC(=O)C1CCN(Cc2ccc(-c3nnn(CC(=O)NCc4ccc(C)cc4)n3)cc2)C1 (centres unmarked) [CBK155406T],99.0825
7,COc1ccc(CN2CCCN(c3cc(OC4CCCCC4)ncn3)CC2)cc1 [CBK083278T],98.6055
8,Cc1ccc(S(=O)(=O)Nc2ccsc2C(=O)N2CCOCC2)cc1[N+](=O)[O-] [CBK004612],86.7404
9,O=C(Nc1ccc(OC(F)(F)F)cc1)N1CCN(Cc2ccc3c(c2)OCO3)CC1 [CBK074754],74.5748
10,CCC(C)c1ccc(NC(=S)NCc2ccccn2)cc1 (centres unmarked) [CBK266966],112.272
11,CCn1cc(CN(CCOC)C(=O)c2cc3c(Cl)cccc3[nH]2)cn1 [CBK306903],43.8783
12,COCCN(Cc1cnn(C)c1)C(=O)c1ccc2oc(C)cc2c1 [CBK307059],23.0974
13,Cc1ccc(C2=NN(C(=N)SC3CC(=O)N(c4ccc(C(=O)O)cc4)C3=O)C(c3ccc(Br)cc3)C2)cc1 (centres unmarked) [CBK263497],106.864
14,CC(=O)N1CCN(C[C@@H]2C=C(C)[C@H](Cc3nnc(C)o3)C[C@H]2C(C)C)CC1 [CBK289219],77.6798
15,Cn1nnnc1SCc1nc(N)nc(Nc2ccccc2)n1 [CBK268092],94.0029
16,O=C(c1ccccc1)c1cn[nH]c1-c1ccccc1O [CBK287970],109.811
17,O=[N+]([O-])c1ccc(CCNCC(O)COc2cccc3c2CCCC3)cc1 (centres unmarked) [CBK003083],92.1799
18,Cc1nn(Cc2nnc(SCC(=O)C(C)(C)C)o2)c(C)c1Br [CBK005646],66.3162
19,CCCCS(=O)(=O)N1CCN(CCc2ccccc2)CC1 [CBK270316],80.8453
20,NC(=O)C1(N2CCCCC2)CCN(C(=S)Nc2ccc(S(N)(=O)=O)cc2)CC1 [CBK265900],96.8748
21,O=C(CCNS(=O)(=O)c1ccccc1)OCc1ccc([N+](=O)[O-])cc1 [CBK296659],74.208
22,OCCCNc1nccnc1-c1ccco1 [CBK037346],65.9621
23,O=C(CN1CCC(C(=O)c2ccc(F)cc2)CC1)Nc1ncccn1 [CBK149131],105.101
24,Cc1n[nH]c(O)c1C(c1cccc([N+](=O)[O-])c1)c1c(C)n[nH]c1O [CBK264753],113.169
25,O=C(CCOc1ccccc1)Nc1cncc(OC2CCNCC2)n1 [CBK026734T],78.5259
26,COc1cc2oc(=O)c(CC(=O)N3CCCC(C(=O)O)C3)c(C)c2cc1Cl (centres unmarked) [CBK286754],113.507

row,SMILES,% of control remaining
1,Cc1nc(S(=O)(=O)N2CCC(OCC3CC3)C2)cn1C (centres unmarked) [CBK304668],46.0233
2,CSc1ncc(C(=O)NC2CCCC2)c(NC2CCCC2)n1 [CBK291223],103.295
3,Oc1nc(O)c2c(n1)NC1(CCC1)[C@@H]1C[C@@H](O)[C@@H](O)[C@H]21 [CBK303249],54.3707
4,OCc1ccc(CN2C[C@H](O)C[C@H]2c2nc(-c3cnccn3)no2)o1 [CBK288832],100.593
5,Cc1ccc(C#N)cc1S(=O)(=O)NC(=O)COCC1CC1 [CBK304427],64.377
6,COc1cc2ncnc(NCc3ccccc3)c2cc1OC [CBK287984],83.3091
7,CCOC(=O)C1CSCN1C(=O)c1cnn(C(CC)CC)c1C (centres unmarked) [CBK304759],87.1412
8,C[C@H](c1ccccc1)n1c(=O)[nH]c2ncc(-c3ccc(C(=O)N4CCN(C)CC4)cc3)nc21 [CBK064559],62.2841
9,CCn1c(CC2CCN(C(=O)CCN3CCCCO3)CC2)nn(C)c1=O [CBK307217],63.3248
10,O=C(NC(c1ccccc1)c1ccccc1)N1CCN(c2ccccc2)CC1 [CBK155177],91.6323
11,COc1ccc(CCNC2CCN(Cc3ccccc3)CC2c2ccccc2)cc1OC (centres unmarked) [CBK286166],113.495
12,CC(C)(C)c1nc(COc2ccc3nonc3c2)no1 [CBK005831],91.2876
13,CC(C)NC(=O)N1Cc2nc[nH]c2C[C@H]1c1nc(-c2ccc(OC(F)(F)F)cc2)no1 [CBK288960],56.4516
14,Cn1cc(Cl)c(C2CCCCCN2C(=O)c2cc(C3CC3)on2)n1 (centres unmarked) [CBK285120],81.6779
15,CCCC(=O)Nc1nnc(-c2ccc(Cl)cc2)o1 [CBK287594],88.2343
16,Cc1nc(C)n(CC2CCCCN2Cc2cn3ccccc3c2C#N)n1 (centres unmarked) [CBK306102],75.1549
17,CC#Cc1cn([C@H]2C[C@@H](O)[C@@H](CO)O2)c(=O)[nH]c1=O [CBK201182],119.931
18,O=C(CN1CCC(C(=O)NC(c2ccccc2)c2ccsc2)CC1)c1ccc(F)cc1 (centres unmarked) [CBK148432],97.9909
19,Cn1cccc1C(=O)N[C@H]1C[C@H]2C(=O)Nc3ccc(/C=C/c4ccccc4)cc3C(=O)N2C1 [CBK289367],91.9469
20,O=C(NC1CCCCC1)c1ccc(-c2ccccc2)nc1NCCc1ccccn1 [CBK076553],112.345
21,Cc1occc1-c1nn(CCN2CCCCC2)c(=O)o1 [CBK283815],112.804
22,CS(=O)(=O)Nc1ccc2cc(-c3ccccc3)cnc2n1 [CBK061899],103.139
23,CC(C)Oc1ccc(C(=O)C2=C(O)C(=O)N(Cc3cccnc3)C2c2cccc([N+](=O)[O-])c2)cc1 (centres unmarked) [CBK264936],119.741
24,O=P(O)(CN1CCCCC1)C1CCCCC1O (centres unmarked) [CBK262325],85.7829
25,COc1cccc(Oc2cnc(-c3cccc(C(F)(F)F)c3)c(N)n2)c1 [CBK145177],96.694
26,O=C(Cn1c(-c2cccs2)cc2cccnc21)N1CCCC1 [CBK282453],115.735

row,SMILES,% of control remaining
1,Cc1ccc(-c2ncc(OCCn3ccnc3)nc2N)cc1C [CBK145148],103.251
2,Cn1cc(CN2C[C@H]3CN(C(=O)C4CCC4)C[C@@]3(C(=O)O)C2)cc1C#N [CBK307105],73.7135
3,CS(=O)(=O)Nc1ncc(-c2ccco2)cc1C(=O)NCCc1c[nH]c2ccccc12 [CBK076569],115.056
4,COc1ccc(Br)c(C(CO)N(C)C(=O)CC#N)c1 (centres unmarked) [CBK304240],33.9467
5,O=C(O)CSc1nnc(-c2ccncc2)n1-c1ccccc1 [CBK264426],97.5639
6,c1nc(N2CCOCC2)c2cn[nH]c2n1 [CBK016811],91.7969
7,Cc1cc(F)ccc1S(=O)(=O)N1CCC2(CC1)CNC(=O)C2 [CBK283354],101.377
8,COc1ccc(OC)c2c1cc(C(=O)NC[C@H]1CC[C@H](C(=O)O)CC1)n2C [CBK286636],96.8191
9,O=[N+]([O-])c1ccc(-c2csc(Nc3ccc4c(c3)OCO4)n2)cc1 [CBK262448B],81.0378
10,CN(C)C(CC(=O)Nc1cccc(Cl)c1Cl)C(=O)O (centres unmarked) [CBK266952],84.2569
11,Cc1cc(/C=C(/C#N)c2ccc(C(=O)O)cc2)c(C)n1-c1ccc(S(N)(=O)=O)cc1 [CBK268896],103.747
12,O=C(NCCO)c1cccc(-c2cncc(NCCCN3CCOCC3)n2)c1 [CBK065432],123.083
13,O=C(COc1ccc2ccccc2c1)Nc1ccc(S(=O)(=O)N2CCCCC2)cc1 [CBK263765],94.0143
14,Cc1sc(-c2cnccn2)nc1O [CBK067738],88.8687
15,CCN(CC)c1c(C)nc2ccc(C(=O)N(C)CCN(C)C)cn12 [CBK145950],95.7067
16,CC(=O)N1CCc2nc(C)nc(N(C)Cc3cnn(C(C)C)c3)c2CC1 [CBK306968],100.576
17,O=C(N[C@H]1CCN2C(=O)N(c3ccc(Br)cc3)C(=O)[C@@H]2C1)c1cccnc1 [CBK289557],102.725
18,O=C(Nc1ccncc1)c1cc(-c2ccncc2)nc2ccccc12 [CBK287787],88.2464
19,O=C(NC(c1ccc(-c2ccccc2)cc1)c1cnccn1)C1CCN(CCOc2ccc3ccccc3c2)CC1 (centres unmarked) [CBK147982],98.888
20,CC1CN(S(=O)(=O)N2CCOCC2)CCN1S(=O)(=O)N1CCOCC1 (centres unmarked) [CBK269011],85.9034
21,O=C(O)C(Cc1ccccc1)N1C(=O)/C(=C/C=C/c2ccccc2)SC1=S (centres unmarked) [CBK263496],105.515
22,CC(=O)c1ccc(NC(=O)N[C@H]2CO[C@H]3[C@@H]2OC[C@H]3OCC(N)=O)cc1 [CBK289460],105.239
23,C=CCn1c2cc(C)oc2c2cnn(CC(=O)N(C)C)c(=O)c21 [CBK283326],105.565
24,CN(C)CCN1C(=O)C(O)=C(C(=O)c2ccc(S(=O)(=O)N(C)C)cc2)C1c1cccnc1 (centres unmarked) [CBK264729],103.385
25,C[C@@H](c1ccccc1)N1C(=O)[C@@H]2CN(S(=O)(=O)c3cccs3)CCN2C1=O [CBK289635],113.942
